From paper PMC6919601, “Identification of Plasmodium dipeptidyl aminopeptidase allosteric inhibitors by high throughput screening” (PLoS ONE, 2019)
“And” between values parts separate entries of the source, which are not always exact repeats. Identical values can stand only once. In all, about 110,000 compounds went through this assay and about 230 (0.21%) showed an effect of 50% or more. Some of the results follow.

biological target: DPAP1 (Plasmodium falciparum, UniProt Q8IIJ9); assay: primary screen, percent inhibition; read by cleavage of a fluorogenic dipeptide substrate; higher = more effect of the substance; set-up: species or system P. falciparum D10 trophozoite lysates; single well
Sequence (Q8IIJ9 whole entry, looked up): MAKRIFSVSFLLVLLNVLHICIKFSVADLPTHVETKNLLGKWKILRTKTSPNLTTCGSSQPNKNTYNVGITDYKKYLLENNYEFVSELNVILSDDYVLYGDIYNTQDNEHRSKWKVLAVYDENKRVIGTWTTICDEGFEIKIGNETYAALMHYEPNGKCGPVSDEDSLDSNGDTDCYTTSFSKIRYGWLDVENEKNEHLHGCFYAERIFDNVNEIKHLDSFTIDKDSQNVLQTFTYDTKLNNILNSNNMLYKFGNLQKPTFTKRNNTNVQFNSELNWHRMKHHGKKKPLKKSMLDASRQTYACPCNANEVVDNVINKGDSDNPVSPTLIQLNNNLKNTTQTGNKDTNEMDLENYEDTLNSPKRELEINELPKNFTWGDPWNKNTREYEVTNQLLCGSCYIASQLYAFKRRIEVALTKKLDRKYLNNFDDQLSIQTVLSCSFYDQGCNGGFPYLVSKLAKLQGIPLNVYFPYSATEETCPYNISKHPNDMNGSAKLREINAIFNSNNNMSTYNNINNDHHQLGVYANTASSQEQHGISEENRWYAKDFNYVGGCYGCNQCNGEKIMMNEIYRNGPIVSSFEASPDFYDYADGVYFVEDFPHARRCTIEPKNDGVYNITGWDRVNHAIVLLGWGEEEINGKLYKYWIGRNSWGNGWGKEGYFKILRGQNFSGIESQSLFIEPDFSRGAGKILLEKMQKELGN
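Also: 30 min substrate incubation versus DMSO and 10 µM JCP410 controls.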

Compound | % Inhibition @ 10 uM
NC(=O)c1c(NC(=O)c2ccc(Cl)c(Cl)c2)sc2c1CCC2 | 0.331%
COc1cc(C2CC(=O)NC3=C2C(=O)CC(C)(C)C3)cc(OC)c1OC (stereo not shown) | -7.27%
CCOC(=O)C1(C#N)C2(CCCCCC2)C1(C#N)C(=O)OCC (stereo not shown) | -3.58%
COc1cc(C2NC(=O)NC(C)=C2C(=O)Nc2ccc(C)cc2)cc(OC)c1OC (stereo not shown) | -1.55%
CN(C)CCCN1C(=O)C(O)=C(C(=O)c2ccccc2)C1c1cccnc1 (stereo not shown) | -1.6%
Cc1ccc2oc(=O)c3cc(C(=O)N4CCOCC4)sc3c2c1 | 3.6%
c1ccc(-n2nnnc2SCCSc2nnnn2-c2ccccc2)cc1 | -5.35%
c1ccc(CSc2ncn(-c3ccccc3)n2)cc1 | 2.79%
Cc1ccc(NC(=O)CSc2ncn(-c3ccccc3)n2)c(C)c1 | 2.82%
Cc1c(Cl)cccc1NCc1ccc(OCc2ccccc2)cc1 | -3.8%
CC1CCN(C2CCN(C)CC2)CC1 | -1.82%
Oc1cccc(-c2nc(S)c3c(n2)Oc2ccccc2C3)c1 | 45.8%
O=C(COc1ccc(Cl)cc1Cl)Nc1cccc(Br)c1 | 1.7%
c1cncc(-c2cc(N3CCOCC3)c3ccccc3n2)c1 | -3.8%
O=C(Cn1ncc2c1-c1ccccc1OC2)N1CCC(N2CCCCC2)CC1 | -4.21%
COc1ccc(-c2noc(CN(C(=O)CCc3ccccc3)C(C)C)n2)cc1 | 0.232%
CC(C)n1c(Br)nc2c1c(=O)n(C)c(=O)n2C | -3.27%
O=P(OCCN1CCOCC1)(c1ccccc1)c1ccccc1 | 2.62%
COCCCNC(=O)COc1ccc2c(c1)C(=O)CC(C)(C)O2 | 0.0654%
COCCOC(=O)Nc1nc2ccc(OC)cc2s1 | 0.266%
CCOc1ccc(NC(=O)CN(C2CCCCC2)S(C)(=O)=O)cc1 | 0.145%
CCc1cc2c(-n3nc(C)cc3C)ncnc2s1 | -2.42%
CC12CN3CC(C)(CN(C1)C31CCCC1)C2O (stereo not shown) | -4.03%
Cc1ccc(C)n1Cc1ccc(Cl)cc1 | -2.8%
O=C(c1noc2c1COc1ccccc1-2)N(Cc1ccccc1)Cc1cccs1 | 3.3%
C=C(C)[C@@H]1CC=C(CN2CCN(C/C=C/c3ccccc3)CC2)CC1 | 7.28%

Compound | % Inhibition @ 10 uM
O=C(Oc1ccccc1)SC1CCS(=O)(=O)C1 (stereo not shown) | -5.28%
c1ccc(-c2nc(-c3ccccn3)c(-c3ccccn3)[nH]2)cc1 | 5.49%
COc1ccccc1C(=O)Nc1c2c(nn1-c1ccc(C)cc1C)CS(=O)(=O)C2 | 3.08%
CNC(=O)CCc1nc(-c2ccc(C(C)(C)C)cc2)no1 | 0.366%
O=C(NCc1ccco1)c1cccc(Cl)c1 | 0.912%
O=C(Cc1ccccc1)N1CCN(Cc2c[nH]c3ccccc23)CC1 | 0.147%
COc1ccc(-c2cn3nc(N4CCC(C(=O)NCCC5=CCCCC5)CC4)sc3n2)cc1 | -0.878%
CCN(CC)CC(C)CNC(=O)C1CCN(S(=O)(=O)c2ccc(C)cc2)CC1 (stereo not shown) | -1.34%
Cc1nnc(N2CCC(C(=O)NCCc3ccc(Cl)cc3)CC2)c2nn(-c3ccccc3)c(C)c12 | 0.58%
CC(=O)N1CCN(Cc2ccc(Cl)cc2Cl)CC1 | -0.603%
COC(=O)c1c(NC(=O)COc2ccccc2C)sc(C)c1C | -6.6%
CCc1ccc(-c2csc(N)n2)cc1 | -0.807%
C1=C(c2ccccc2)Nc2nc3ccccc3n2C1c1ccccc1 (stereo not shown) | 2.86%
Cc1ccc(S(=O)(=O)c2cnc3ccccc3c2O)cc1C | 1.42%
COc1ccc(OCC(O)CN2CCN(C)CC2)cc1 (stereo not shown) | 0.51%
c1sc2c(c1CN1CCOCC1)CCCC2 | 0.124%
CC(C)(C)c1ccc(C(=O)NCCN2CCOCC2)cc1 | 5.09%
CCN(CC)C(=O)c1ccc(Oc2nnnn2-c2ccccc2)c(OC)c1 | 1.84%
Cc1ccc(OCC(=O)Nc2cccc(C)c2)cc1 | 1.59%
CCOc1ccc(C2c3c(-c4ccccc4O)n[nH]c3C(=O)N2CCCOC(C)C)cc1 (stereo not shown) | 0.155%
CC1CCCCN1C1CCN(Cc2ccccc2)CC1 (stereo not shown) | -0.0908%
COc1ccc(OC)c(CNC(=O)CCc2nc(-c3cccs3)no2)c1 | -7.21%
CCOC(=O)C1=C(C)N=c2s/c(=C\c3cccs3)c(=O)n2C1c1ccc(C)cc1 (stereo not shown) | 1.27%
Cc1cc(C(=O)Nc2cccc(C(F)(F)F)c2)ccc1[N+](=O)[O-] | -2.42%
C=CCN(CC=C)C(=O)C1c2ccccc2Oc2ccccc21 | 5.25%
Oc1nc2ccc3nsnc3c2nc1O | -2.18%

Compound | % Inhibition @ 10 uM
CCCCOc1ccc(/C=C(/C#N)c2nc(-c3ccccc3)cs2)cc1 | -0.771%
Cc1nc2cc(-c3cccc(F)c3)nn2c(C)c1CCC(=O)NCc1cccnc1 | -0.465%
COc1cc(C2C(C#N)=C(N)Oc3c2c(=O)oc2ccccc32)ccc1O (stereo not shown) | 0.147%
CC1CC(C)N(C(=O)c2cc(-c3ccc(F)cc3)no2)C(C)C1 (stereo not shown) | -0.901%
CCOCCCNC(=O)C(NC(=O)Cc1cccs1)c1ccccc1 (stereo not shown) | -2.9%
CC(=O)Nc1ccc(Nc2nc3ccccc3nc2NS(=O)(=O)c2ccc(C)cc2)cc1 | -7.35%
CCOC(=O)c1[nH]c(COC)c(C(C)=O)c1C | 2.7%
COc1ccccc1Cn1ccn(Cc2cccc(F)c2)c(=O)c1=O | 3.71%
Cc1ccc(-c2csc3ncnc(N4CCCC4)c23)cc1 | -4.39%
O=C(Nc1ccccc1)c1cc2ccccc2oc1=O | 0.132%
O=C(NC12CC3CC(CC(C3)C1)C2)N1CCC(CN2CCCCC2)CC1 | 6.78%
CCOC(=O)c1cnc2c(-c3ccccc3OC)c(C)nn2c1C | -2.5%
COc1cccc(/C=C2/NC(=O)N(c3ccccc3)C2=O)c1OCC(=O)Nc1ccc(F)cc1 | 3.48%
COc1ccccc1CN1CCN(Cc2ccc(C)cc2)CC1 | -2.74%
CCO/C(O)=C1\C(C)=NC(=S)NC1c1cccc2ccccc12 (stereo not shown) | -1.66%
O=C(Nc1ccc(Cl)cc1)c1cc(Cl)ccc1NS(=O)(=O)c1ccc(Cl)c([N+](=O)[O-])c1 | 7.87%
O=C(CN1CCCCC1)N1CCN(C(=O)c2ccccc2)C1 | -0.48%
Cc1ccc(-c2nnc(N3CCOCC3)c3ccccc23)cc1S(=O)(=O)N1CCCCC1 | -3.41%
CCO/C(O)=C1/C(C)=NC(=S)NC1c1ccc(C)cc1 (stereo not shown) | -1.99%
COc1ccc(-c2nc(Nc3c(C)n[nH]c3C)sc2C)cc1 | 0.627%
Cc1cc(C)cc(NS(=O)(=O)c2ccc(Cl)cc2)c1 | 3.85%
N#Cc1c(Cl)nc(N2CCOCC2)c(Cl)c1Cl | 0.561%
COc1ccc2nc(N/C=C3/C(=O)NC(=O)N(c4cccc(Cl)c4)C3=O)sc2c1 | 0.673%
Cc1cc(C)c(C)c(/C=C(/C#N)C(N)=S)c1C | -4.35%
CCc1ccc(/N=C(\C)C2=C(O)c3ccccc3C2=O)cc1 | -0.759%
O=C(c1ccncc1)N1CCN(Cc2ccccc2C(F)(F)F)CC1 | 3.95%

Compound | % Inhibition @ 10 uM
Cc1cccc2c1-c1sc(C(=O)NCC3CCCO3)cc1CO2 (stereo not shown) | 3.45%
O=C(c1ccc(Cl)cc1Cl)N1CCN(c2ccccc2)CC1 | -2.02%
CCC(=O)Nc1ccc2nc(SC(CC)C(=O)Nc3ccc(C(C)=O)cc3)sc2c1 (stereo not shown) | 1.03%
COC(=O)c1cc(S(=O)(=O)NCC2CCN(CCc3ccc(OC)cc3)CC2)cn1C | -0.127%
COc1ccc2nc(C(=O)O)sc2c1 | -7.15% and 1.63%
O=C1c2ccc3c4c(ccc(c24)C(=O)N1Cc1ccccc1)C(=O)N(Cc1ccccc1)C3=O | 8.97%
CCOC(=O)c1c(C)[nH]c(C)c1S(=O)(=O)N1CCCC(C(=O)NC(C)C)C1 (stereo not shown) | -1.59%
CC(=O)c1cnc2cc(-c3cccc(Br)c3)nn2c1C | 0.35%
CC1=C(C(=O)Nc2cccnc2)C(c2ccc(Br)cc2)n2nc(CCCO)nc2N1 (stereo not shown) | 10%
O=c1c(-c2ccc(Cl)cc2)c(C(F)(F)F)oc2cc(O)ccc12 | -7.46%
CCc1ccc(Oc2nc3ccccn3c(=O)c2/C=C(\C#N)C(=O)N2CCCCC2)cc1 | -4%
Cn1c(=O)n(CCc2ccccc2)c(=O)c2c1nc1n2CCN1Cc1ccco1 | -2.28%
O=C(Nc1nonc1-c1nc2ccccc2[nH]1)c1ccncc1 | 5.39%
C(#Cc1cccs1)c1cnc2ccccc2c1 | 2.05%
Cc1ccc(CNC(=O)C2CCC(CNS(=O)(=O)c3ccc(Br)s3)CC2)cc1 (stereo not shown) | -0.0508%
O=C(Nc1ccccc1F)c1ccc(Br)c(S(=O)(=O)N2CCOCC2)c1 | 5.84%
CC(C)(C)Nc1nc(NC(C)(C)C)nc(N2CCCCC2)n1 | -3.58%
COC(=O)c1ccc2c(c1)C(=O)N(c1cccc(NC(C)=O)c1)C2=O | 1.64%
Cn1cc(/C=C(\C#N)[N+](=O)[O-])c2ccccc21 | -2.51%
O=C(Nc1ccccc1-c1ccccc1NC(=O)C1C2CCCCC21)C1C2CCCCC21 (stereo not shown) | 4.22%
C=CCOc1ccc(Br)cc1CNC(C)(C)CO | -5.15%
CC1CCN(Cc2nc3c(c(=O)n(C)c(=O)n3C)n2Cc2ccc(F)cc2)CC1 | -0.499%
O[C@@H](CNC[C@H](O)c1ccccc1)c1ccccc1 | 0.108%
COCCCNC(=O)C1CCCN(c2ncnc3c2nc2n3CCCCC2)C1 (stereo not shown) | 2.36%
O=C(CCc1nnc2ccc(N3CCCCC3)nn12)NCc1ccc(F)cc1 | 1.66%
